# In all, about 270,000 compounds went through this assay and about 5,800 (2.1%) were called active. The shares of active, inactive and inconclusive entries below differ from those in the screen. The call rests on the fitted dose curve; in most records, active means well fitted inhibition curve with a large enough effect; inconclusive means small, poorly fitted or top-dose-only effect; inactive means flat fitted curve, though single readings scatter. Potencies beside an inconclusive call are fits to weak or partial responses and may not hold up.
# Target: Microtubule-associated protein tau (Homo sapiens) (UniProt P10636)
# Assay: qHTS for Inhibitors of Tau Fibril Formation, Thioflavin T Binding; further: nearly all actives have a fitted effect of over 55% in size
# Conditions: recombinant tau K18 P301L, heparin-induced fibrillization, ThT fluorescence; series mostly up to 57.4 µM
# Summary of the method: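 Fibril formation assay: tau K18 P301L at 15 uM with trace Alexa 594 label, heparin inducer 20 uM, pH 7 sodium acetate buffer, 37 C for 6 hr; endpoint ThT signal.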
# Potency means the concentration at half of the fitted maximal effect; tags describe the fitted curve by direction and shape.
# UniProt P10636, sequence (P10636 whole entry, looked up): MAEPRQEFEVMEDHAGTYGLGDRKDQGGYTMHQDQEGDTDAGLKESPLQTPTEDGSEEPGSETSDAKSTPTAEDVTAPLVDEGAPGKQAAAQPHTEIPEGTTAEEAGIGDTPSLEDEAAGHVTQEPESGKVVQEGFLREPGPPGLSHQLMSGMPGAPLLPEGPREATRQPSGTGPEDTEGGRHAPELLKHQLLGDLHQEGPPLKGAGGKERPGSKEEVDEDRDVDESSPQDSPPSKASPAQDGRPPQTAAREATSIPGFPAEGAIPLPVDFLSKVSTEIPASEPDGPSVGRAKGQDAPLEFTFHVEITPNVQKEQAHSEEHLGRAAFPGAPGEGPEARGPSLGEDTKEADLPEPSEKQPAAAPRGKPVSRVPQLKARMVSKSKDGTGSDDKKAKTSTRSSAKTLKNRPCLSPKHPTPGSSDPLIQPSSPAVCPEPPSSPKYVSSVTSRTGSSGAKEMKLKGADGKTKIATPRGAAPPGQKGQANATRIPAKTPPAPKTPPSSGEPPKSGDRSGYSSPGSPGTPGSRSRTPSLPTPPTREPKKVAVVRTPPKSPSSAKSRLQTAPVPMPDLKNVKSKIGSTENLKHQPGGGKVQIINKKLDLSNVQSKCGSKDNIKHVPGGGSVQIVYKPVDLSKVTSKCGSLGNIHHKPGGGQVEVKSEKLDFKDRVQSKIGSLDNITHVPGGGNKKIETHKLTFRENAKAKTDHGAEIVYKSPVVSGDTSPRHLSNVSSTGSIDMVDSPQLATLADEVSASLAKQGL
row,SMILES,Potency
1,O=C(O)CCn1cc(/C=C/C(=O)c2ccc(Cl)cc2)c(-c2ccc(Br)cc2)n1,"inconclusive: 28.2 µM [inhibitor, single point]"
2,Cc1ccccc1NC(=O)CSc1nc(=O)n(CCN2CCOCC2)c2c1CCC2,inactive
3,Cc1nn2c(-c3ccccc3)c(-c3ccccc3)nc2[nH]c1=O,"inconclusive: 12.6 µM [inhibitor, partial curve]"
4,Cc1cc(C)cc(NC(=O)c2ccc(CNc3c(N4CCOCC4)c(=O)c3=O)cc2)c1,"inconclusive: 20 µM [inhibitor, partial curve]"
5,CC(C)c1cnc2c(c1SCC(=O)NCc1ccccc1)c(=O)n(C)c(=O)n2C,inactive
6,CC1CCN(C(c2ccc(N(C)C)cc2)c2nnnn2C(C)(C)C)CC1 (centres undefined),active: 10 µM
7,Nc1c(C(=O)Nc2ccc(F)cc2)sc2nc(-c3ccco3)ccc12,active: 6.31 µM
8,CCn1c(=O)cc(SCC(=O)N2CCN(c3cc(C)ccc3C)CC2)c2ccccc21,"inconclusive: 10 µM [inhibitor, partial curve]"
9,COc1ccc(OC)c(Nc2nc(-c3sc(NC(=O)c4ccccc4)nc3C)cs2)c1,"inconclusive: 25.1 µM [inhibitor, partial curve]"
10,COc1ccc(S(=O)(=O)/N=C2/C=CC(=O)C(C)=C2C)cc1,"inconclusive: 39.8 µM [inhibitor, single point]"
11,C=CCn1c(SCC(N)=O)nc2scc(-c3ccc(C)o3)c2c1=O,"inconclusive: 8.91 µM [inhibitor, partial curve]"
12,O=C(CNc1ccc2ccccc2c1)N/N=C/c1cc2ccccc2nc1Cl,"inconclusive: 10 µM [inhibitor, partial curve]"
13,Cc1ccc(C(=O)Nc2ccc(C(=O)/C=C/c3cccs3)cc2)cc1,"inconclusive: 3.55 µM [inhibitor, full curve]"
14,O=c1oc2cc(O)c(Cl)cc2c2ccccc12,inactive
15,CC(=O)Nc1ccc(-c2csc(NCc3ccccc3)n2)cc1,"inconclusive: 14.1 µM [inhibitor, partial curve]"
16,CCOC(=O)c1cc(OC(=O)c2ccc(OC)c(OC)c2)n(-c2ccccc2)n1,"inconclusive: 4.47 µM [inhibitor, full curve, poor fit]"
17,COC(=O)c1[nH]c2cc(OC)ccc2c1NC(=O)CCN1CCN(c2cccc(C)c2C)CC1,"inconclusive: 28.2 µM [inhibitor, partial curve]"
18,CCOC(=O)N1CCN(C(=O)COc2cccc3c2CCN(Cc2ccccc2C)C3=O)CC1,inactive
19,COc1cc(/C=N/NC(=O)C(Cc2c[nH]c3ccccc23)NC(=O)OCC(C)C)cc([N+](=O)[O-])c1OCc1ccccc1 (centres undefined),inactive
20,CCc1ccc(C(=O)/C=C2\Sc3ccccc3NC2=O)cc1,"inconclusive: 15.8 µM [inhibitor, partial curve]"
21,CC(C)=CCC/C(C)=C/C(N)=O,inactive
22,CSc1nc(N(C)CCO)c2sc3nc(-c4ccco4)c4c(c3c2n1)CCC4,"inconclusive: 10 µM [inhibitor, partial curve, poor fit]"
23,CCOC(=O)c1c2c3c(cccc3[nH]c1=O)C(=O)c1ccccc1-2,inactive

row,SMILES,Potency
1,CCOC(=O)c1c(C)oc2nc(C)nc(NCc3cccc(OC)c3)c12,inactive
2,CCCCN(CC)C(=O)Cn1nc(C)c2c(C)n(-c3ccccc3)nc2c1=O,inactive
3,COc1ccc(Cl)cc1C(=O)NC(=S)Nc1cc(-c2nc3ccccc3[nH]2)ccc1C,"inconclusive: 20 µM [inhibitor, partial curve, poor fit]"
4,Cc1cccc(C(=O)NN2C(=O)C3C(c4ccccc4)C=CC(c4ccccc4)C3C2=O)c1 (centres undefined),inactive
5,N#CC1=C(S)N(c2ccccc2)C(c2ccc(-c3ccc(Cl)c(Cl)c3)o2)NC1=O (centres undefined),active: 15.8 µM
6,O=C(Nc1ccc(Cl)c(Cl)c1)Nc1cc(C(=O)NC2CC2)ccc1Cl,"inconclusive: 22.4 µM [activator, partial curve]"
7,CCC(=O)Oc1cccc(C(=O)Nc2ccc(-c3nnc(-c4ccco4)o3)cc2)c1,"inconclusive: 8.91 µM [inhibitor, partial curve, poor fit]"
8,CCOC(=O)N1CCc2c(sc3c2c(=O)n(-c2ccc(Cl)cc2)c(=O)n3CC(=O)Nc2ccccc2)C1,inactive
9,Cc1ccc(C)c(N2CCN(C(=O)Cn3nc(Cc4cccnc4)c4ccccc4c3=O)CC2)c1,inactive
10,O=C(CCc1ccc(S(=O)(=O)N2CCOCC2)cc1)OCc1nc2ccccc2s1,inactive
11,Cc1ccc(CNc2nc(-c3cccs3)nc3ccccc23)cc1,inactive
12,Cc1ccc([N+](=O)[O-])c(C(=O)N/N=C/c2cccnc2)c1,"inconclusive: 6.31 µM [inhibitor, partial curve, poor fit]"
13,O=C(O)c1ccc(CNc2ccccc2C(=O)O)cc1,inactive
14,COc1ccc(C(=O)Nc2nnc(S(=O)(=O)N3CCOCC3)s2)cc1,"inconclusive: 3.98 µM [inhibitor, partial curve]"
15,O=C1OC(C(O)CO)C(O)=C1O (centres undefined),"inconclusive: 31.6 µM [inhibitor, partial curve]"
16,CCCCCCCCCCS(=O)(=O)N/N=C/c1ccc([N+](=O)[O-])cc1,"inconclusive: 44.7 µM [inhibitor, partial curve, poor fit]"
17,O=C(CSc1ncnc2ccccc12)Nc1ccc(N2CCOCC2)cc1,"inconclusive: 3.55 µM [inhibitor, partial curve]"
18,Cc1ccc(CNC(=O)CSc2c3c(nc4ccc(Cl)cc24)CCCC3)o1,"inconclusive: 8.91 µM [inhibitor, partial curve]"
19,C=CCCC(=O)Nc1nc(C)c(-c2csc(Nc3ccc(Cl)cc3)n2)s1,"inconclusive: 11.2 µM [inhibitor, partial curve]"
20,C/C(=N\O)C(C)Oc1ccc(Cl)cc1 (centres undefined),inactive
21,Cc1cccc(/N=C/c2c(C)[nH]n(-c3ccccc3)c2=O)n1,"inconclusive: 35.5 µM [inhibitor, single point]"
22,OCC1CCCN(C(=S)Nc2ccc(OC(F)F)cc2)C1 (centres undefined),inactive
23,Cc1cccc(Nc2nnc(SCC(=O)Nc3ccccc3[N+](=O)[O-])s2)c1,"inconclusive: 14.1 µM [inhibitor, partial curve]"

row,SMILES,Potency
1,C[C@@H]1CC[C@H]2[C@H](C)[C@H]3CC[C@H]4C5[C@@H](O)CC6=CC(=O)CC[C@]6(C)[C@H]5C[C@H]4C3C(=O)N2C1 (some centres undefined),inactive
2,CCOC(=O)C1=C(CSc2nc3c(cc2C#N)CN(C)CC3)OC(N)=C(C#N)C1c1ccc(Cl)cc1 (centres undefined),active: 20 µM
3,Cc1cc(C)cc(-n2c(C)cc(C=C(C#N)C#N)c2C)c1,"inconclusive: 3.55 µM [inhibitor, full curve]"
4,Cc1cccc(CNC(=O)C2CCN(c3nc4ccc(Cl)cc4[nH]3)CC2)c1,"inconclusive: 10 µM [inhibitor, partial curve, poor fit]"
5,CC(CCc1ccco1)NC(=O)c1cccc2c1C(=O)N(C1CCCCC1)C2 (centres undefined),"inconclusive: 39.8 µM [inhibitor, single point]"
6,CCOc1cc(/C=C2\C(=O)N(CCc3ccc(OC)c(OC)c3)C(C)=C2C(=O)OC)ccc1O,active: 28.2 µM
7,COc1cc(/C=N/Nc2nc(N3CCCC3)nc(N3CCCC3)n2)ccc1OCc1ccccc1F,"inconclusive: 3.98 µM [inhibitor, partial curve]"
8,CC(C)(C)c1ccc(NC(=O)N2CCN(c3ccc([N+](=O)[O-])cn3)CC2)cc1,"inconclusive: 0.794 µM [inhibitor, full curve]"
9,Cc1ccc(NC(=S)N=Nc2c(O)[nH]c3ccccc23)cc1,"inconclusive: 2.51 µM [inhibitor, full curve]"
10,CCOC(=O)c1c(C)[nH]c(C)c1S(=O)(=O)NCC(=O)N(C)c1ccc(C)c(C)c1,inactive
11,Cc1cccc(NC(=O)NNC(=O)c2cc3ccccc3cc2O)c1C,"inconclusive: 44.7 µM [inhibitor, single point]"
12,O=C(NCCOC(=O)c1ccc(C(=O)OCCNC(=O)c2cccnc2)s1)c1cccnc1,"inconclusive: 3.55 µM [inhibitor, partial curve]"
13,CC(C)CC(=O)O/N=C1\C(=O)N(c2ccccc2)c2ccccc21,"inconclusive: 28.2 µM [inhibitor, single point]"
14,Cc1c(C(=O)Nc2ccc(Br)cc2F)sc2ncnc(N(C)C3CCCCC3)c12,"inconclusive: 28.2 µM [inhibitor, partial curve]"
15,CCOCCCNc1ccc(N2C(=O)C3CCCCC3C2=O)cc1[N+](=O)[O-] (centres undefined),"inconclusive: 25.1 µM [inhibitor, partial curve]"
16,Cc1cc(Cl)ccc1OC(C)C(=O)N1CCCN(C(=O)C(C)Oc2ccc(Cl)cc2C)CC1 (centres undefined),"inconclusive: 17.8 µM [inhibitor, partial curve]"
17,S=C(NCc1ccco1)N/N=C/c1ccc(Cl)cc1,inactive
18,O=C1C2CC(O)CN2C(=S)N1Cc1ccccc1 (centres undefined),inactive
19,CC1=C(C(=O)Nc2ccccc2C)C(c2ccc(C)o2)n2c(s/c(=C/c3ccccc3)c2=O)=N1 (centres undefined),"inconclusive: 7.94 µM [inhibitor, partial curve]"
20,CCOc1ccc(CNc2ccc(N3CCCC3)cc2)cc1,active: 7.08 µM
21,CCc1ccc(Nc2ccc(S(=O)(=O)N3CCOCC3)cc2[N+](=O)[O-])cc1,"inconclusive: 15.8 µM [inhibitor, partial curve]"
22,CCCn1c(O)c(CN2CCCCC2)c(C)c(C#N)c1=O,"inconclusive: 20 µM [inhibitor, partial curve]"
23,CCCCC(=O)Nc1ccc(NC(=S)NC(=O)CC)cc1OC,"inconclusive: 39.8 µM [inhibitor, single point]"
